Residue numbers refer to the chain shown, from its start.
Assays:
human BCMA protein = biological target: T1, human BCMA protein (human, UniProt Q02223 1-54); experiment: affinity detection, method not stated
T1 construct: also called B cell maturation antigen
T1 sequence (looked up): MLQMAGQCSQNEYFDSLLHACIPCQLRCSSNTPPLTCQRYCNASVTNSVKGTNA

human ROR1 protein = biological target: T2, human ROR1 protein (human, UniProt Q01973 in part); experiment: affinity detection, method not stated
T2 construct: The immunogen was a human ROR-1 fusion protein (ACRO, RO1-H5250)

Chain of human ROR1 protein (Q01973 30-403 limits assumed): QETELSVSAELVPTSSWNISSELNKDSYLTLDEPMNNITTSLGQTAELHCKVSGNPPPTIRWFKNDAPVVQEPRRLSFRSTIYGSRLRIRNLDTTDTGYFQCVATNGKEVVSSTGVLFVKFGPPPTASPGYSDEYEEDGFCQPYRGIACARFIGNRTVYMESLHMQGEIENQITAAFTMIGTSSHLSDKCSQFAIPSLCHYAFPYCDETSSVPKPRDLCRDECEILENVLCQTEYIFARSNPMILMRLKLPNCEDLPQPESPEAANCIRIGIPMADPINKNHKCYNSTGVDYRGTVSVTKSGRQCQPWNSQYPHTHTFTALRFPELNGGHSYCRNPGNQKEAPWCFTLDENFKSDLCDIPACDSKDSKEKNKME

B1: VHH1-hFc (Fc fusion)
chain: QVQLVESGGGLVQPGGSLRLSCSGSGFTLDYYMIGWFRQAPGKEREGLSSISPADGSTYYADSVKGRFTISRDSAKNTVYLQMNNLKPEDTALYYCAAGNEATISWGFGPWEYDYWGQGTQVTVSS[gap - human IgG1 Fc with C220S (EU numbers)]
notes: VHH1 recombined into an expression vector for human IgG1 Fc; also called chimeric antibody VHH1-hFc
With B1 the Kd (human BCMA protein) was 0.527 nM.

B2: hu-VHH1-hFc (Fc fusion)
chain: B1 chain with Q1E, G24A, A75S, N85S, K87R, P88A, L93V, Q121M
notes: Humanized VHH1 fused to human IgG1 Fc; also called humanized antibody hu-VHH1-hFc
B2 gave a Kd (human BCMA protein) of 0.613 nM.

B3: hu-VHH2-hFc (Fc fusion)
chain: EVQLVESGGGLVQPGGSLRLSCAASESISSIHIMAWYRQAPGKQRELVAGIRNDGSTVYVDSVKGRFTISRDNAKNSVYLQMNSLRAEDTAVYYCNADQGFGSYSEWERRSRWGQGTTVTVSS[gap - human IgG1 Fc with C220S (EU numbers)]
notes: Humanized VHH2 fused to human IgG1 Fc; also called humanized antibody hu-VHH2-hFc
In the case of B3, the Kd (human BCMA protein) is reported as 0.0882 nM.

B4: ROR1-1-hFc (Fc fusion)
chain: DLQLQESGPGLVKPSQSLSLTCSVTGYSITSGYDWNWIRQFPGNKLEWMGYINYDGSNNYNPSLKNRISITRDTSKNQFFLRLSSVTTEDTATYFCARGILRGYFDYWGQGTTLTVSSGGGGSGGGGSGGGGSEIVLTQSPGSLAVSLGQRATISCRASESVDNFGLSFMHWYQQKPGQPPKLLIYRASNLESGIPARFSGSGSRTDFTLTINPVETDDVATYYCQQSNKDPYTFGGGTKLEIK[gap - human IgG1 Fc with C220S (EU numbers)]
notes: ROR1-1-scFv (VH-linker-VL) cloned into a vector with signal peptide and human Fc; also called ROR1-1-scFv-hFc; chimeric antibody ROR1-1-hFc
In the case of B4, the Kd (human ROR1 protein) is reported as 323 nM.

From patent US20250213694A1 (SHANGHAI SIMNOVA BIOTECHNOLOGY, published 2025)
